Laboratory results from PubChem BioAssay AID686970 (National Center for Advancing Translational Sciences (NCATS), 2013).
Screen size: about 360,000 compounds; about 6,000 (1.7%) were called active. This list was built around the results that the source calls inconclusive (neither active nor inactive); the mix of calls is not that of the screen. The call rests on the fitted dose curve; in most records, active means well fitted cell-killing curve with a large enough effect; inconclusive means small, poorly fitted or top-dose-only effect, or effect the other way; inactive means flat fitted curve, though single readings scatter. No potency is given beside an inconclusive call; the fits are too rough.

Assay: qHTS for induction of synthetic lethality in tumor cells producing 2HG: qHTS for the HT-1080-NT fibrosarcoma cell line;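 further: NT is the 2HG producing partner of a matched IDH1 knockdown line; nearly all actives have a fitted effect of over 55% in size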;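 on activity, negative = less viability: 0% = DMSO-treated cells and -100% = media-only wells without cells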
Settings: HT-1080-NT fibrosarcoma viability, CellTiter-Glo ATP luminescence, 48 h; activity, negative = less viability: at 46.1 µM (top of the series) unless noted
How it was run: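 Viability of the 2HG-overproducing fibrosarcoma line after 48 hours of compound exposure at 37 degrees C was determined by luminescence with CellTiter-Glo, and concentration-effect curves were then fitted and categorized.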
Potency means the concentration at half of the fitted maximal effect; tags describe the fitted curve by direction and shape.

Question: For `COc1cc(CNc2ccc3[nH]c(=O)[nH]c3c2)ccc1OCc1ccc(F)cc1Cl`, which Potency is on record?
Answer: Its Potency is inconclusive [cytotoxic, single point].

Question: Which Potency does the source give for `O=C(c1ccc2c(c1)OCCO2)C1CCN(C(=O)Nc2ccc(F)cc2)CC1` here?
Answer: The Potency was “inactive”.

Question: Which Potency does the source give for `O=C(Cc1csc(Nc2nc(=S)[nH]c3ccccc23)n1)NCCCN1CCN(c2cccc(Cl)c2)CC1` here?
Answer: The Potency was inconclusive [cytotoxic, partial curve].

Question: With `N#Cc1c(NC(=O)c2cc(-n3cnnc3)ccc2Cl)sc2c1CCCC2` as the molecule, how does the activity, negative = less viability read?
Answer: The activity, negative = less viability was inconclusive: -37% [cytotoxic].

Question: For `COc1ccccc1CC1(C)C(=O)Nc2ccc(OC(F)(F)F)cc21` (centres undefined), which Potency is on record?
Answer: Its Potency is inconclusive [cytotoxic, single point].

Question: For `COc1ccc(-n2cc(-c3ccccc3)c3c(N4CCN(CCO)CC4)ncnc32)cc1`, which Potency is on record?
Answer: Its Potency is active: 15.8 µM.

Question: With `CCc1ccc(NC(=O)C2CCCN(S(C)(=O)=O)C2)cc1` (centres undefined) as the molecule, how does the Potency read?
Answer: Its Potency is “inactive”.

Question: For `N#Cc1ccc(S(=O)(=O)N2CCCCC2c2cc(C(=O)N3CCOCC3)no2)cc1` (centres undefined), which Potency is on record?
Answer: The Potency was inconclusive [rising, partial curve].

Question: For `OCCCN1CCN(CCOc2ccccc2-c2ccccc2)CC1`, which Potency is on record?
Answer: Its Potency is “inactive”.

Question: With `Cc1ccc(OCc2nc(-c3ccc(Cl)cc3)n[nH]2)cc1` as the molecule, how does the Potency read?
Answer: The Potency was inconclusive [cytotoxic, single point].

Question: For `O=C(O)/C=C\C(=O)Nc1ccccc1C#Cc1ccc(Br)cc1`, which Potency is on record?
Answer: Its Potency is inconclusive [cytotoxic, single point].

Question: For `O=C(Nc1ccc(Nc2ccccc2)cc1)c1cc([N+](=O)[O-])ccc1Cl`, which Potency is on record?
Answer: Its Potency is inconclusive [cytotoxic, single point].

Question: With `CCS(=O)(=O)Nc1ccc(C2=NN(C(=O)c3ccco3)C(c3ccco3)C2)cc1` (centres undefined) as the molecule, how does the Potency read?
Answer: The Potency was inconclusive [cytotoxic, partial curve].

Question: Which Potency does the source give for `COCCN=C1Sc2nc3cc(C)c(C)cc3cc2CN1Cc1cccs1` here?
Answer: Its Potency is “inactive”.

Question: With `O=C(NCCc1ccccc1)c1cnc2ccccc2n1` as the molecule, how does the Potency read?
Answer: The Potency was “inactive”.

Question: With `c1ccc(C2[C@H]3CN(Cc4cccnc4)[C@H](c4ccccc4)C34CC2(c2cccnc2)C4)cc1` (some centres undefined) as the molecule, how does the Potency read?
Answer: The Potency was inconclusive [cytotoxic, single point].

Question: With `COc1ccc(NC(=O)c2oc3ccc(S(=O)(=O)N4CCC5(CC4)OCCO5)cc3c2C)cc1` as the molecule, how does the Potency read?
Answer: Its Potency is inconclusive [cytotoxic, single point].

Question: Which Potency does the source give for `CCn1c(=O)cc(C(F)(F)F)[nH]c1=S` here?
Answer: The Potency was “inactive”.

Question: With `COc1cc(-c2nc3ccccn3c2NCc2ccccc2)ccc1SC1CCCCC1` as the molecule, how does the Potency read?
Answer: The Potency was inconclusive [cytotoxic, single point].

Question: Which Potency does the source give for `O=C(NNC(=O)c1cc(-c2ccccc2)nc2ccccc12)Nc1cccc(Cl)c1` here?
Answer: Its Potency is active: 18.4 µM.

Question: Which Potency does the source give for `Cc1ccc(S(=O)(=O)Nc2ccc3oc(=O)sc3c2)c(C)c1` here?
Answer: The Potency was inconclusive [cytotoxic, single point].

Question: For `O=C(c1cc(-c2ccco2)nn1-c1cccc(Cl)c1)N1CCCCC1`, which Potency is on record?
Answer: The Potency was inconclusive [cytotoxic, single point].

Question: With `O=S(=O)(c1cccc(S(=O)(=O)N2CCCC2)c1)c1cccc(S(=O)(=O)N2CCCC2)c1` as the molecule, how does the Potency read?
Answer: The Potency was “inactive”.

Question: With `O=C(N/N=C/c1ccc(Cl)cc1)c1cc2c(s1)-c1ccccc1CC2` as the molecule, how does the Potency read?
Answer: Its Potency is inconclusive [cytotoxic, full curve].

Question: For `Cc1ccc(S(=O)(=O)N2CC3C(=O)C[C@@H](c4ccccc4)N(S(=O)(=O)c4ccc(CCCOCCOCCNC(=O)OC(C)(C)C)cc4)C3CC2c2ccccc2)cc1` (some centres undefined), which Potency is on record?
Answer: Its Potency is inconclusive [rising, single point].

Question: For `CCOC(=O)CSc1c(-c2cccs2)[nH]c2ccccc12`, which Potency is on record?
Answer: The Potency was active: 18.4 µM.

Question: For `CCCCCCCNC1=CC(=O)CC(c2ccccc2)C1` (centres undefined), which Potency is on record?
Answer: The Potency was inconclusive [cytotoxic, single point].

Question: For `Brc1ccc2[nH]c3nc(SCCN4CCOCC4)nnc3c2c1`, which Potency is on record?
Answer: The Potency was inconclusive [cytotoxic, partial curve].

Question: Which Potency does the source give for `Cc1ccc(NS(=O)(=O)c2csc(C(N)=O)c2)c(C)c1` here?
Answer: Its Potency is “inactive”.

Question: Which Potency does the source give for `CCN1C(=O)[C@H]2[C@@H](c3ccc(C)cc3)N3C(=O)N(c4ccc(C)cc4)C(=O)[C@@]3(Cc3ccccc3)[C@H]2C1=O` here?
Answer: Its Potency is inconclusive [rising, single point].

Question: Which Potency does the source give for `O=C1C=C(N2CCCCC2)c2ccccc2C1=O` here?
Answer: Its Potency is active: 6.51 µM.

Question: For `O=c1cc(CN2CCN(S(=O)(=O)c3cccc(Cl)c3)CC2)c2ccc(O)cc2o1`, which Potency is on record?
Answer: Its Potency is inconclusive [cytotoxic, partial curve].

Question: For `CN(CCn1ccnc1)Cc1cn(Cc2ccccc2)nc1-c1ccc2c(c1)OCO2`, which Potency is on record?
Answer: Its Potency is “inactive”.

Question: With `COCCNC(=O)C1(C)CCCN(C(=O)Cc2ccc3ccccc3c2)C1` (centres undefined) as the molecule, how does the Potency read?
Answer: Its Potency is inconclusive [rising, single point].

Question: Which Potency does the source give for `O=C(CN1CCN(CC(=O)Nc2ccc(OCc3ccccc3)cc2)CC1)Nc1ccc(F)cc1` here?
Answer: The Potency was inconclusive [cytotoxic, single point].

Question: Which Potency does the source give for `Cn1c(COc2ccc(Cl)cc2)nc2ccccc2c1=O` here?
Answer: Its Potency is inconclusive [cytotoxic, single point].

Question: Which Potency does the source give for `COc1ccc2c(c1)[C@H]1[C@H](CO2)[C@H](c2ccccc2)[C@]2(C)C(=O)Nc3ccc(F)cc3C(=O)N12` here?
Answer: The Potency was inconclusive [cytotoxic, single point].

Question: Which Potency does the source give for `CCCCNC(=O)NC1(C(F)(F)F)Oc2ccccc2O1` here?
Answer: Its Potency is “inactive”.

Question: With `CC(C)(C)c1ccc(C(=O)NCCC(=O)NC2=NCCS2)cc1` as the molecule, how does the activity, negative = less viability read?
Answer: Its activity, negative = less viability is inactive: 2% [at 9.24 µM].

Question: Which Potency does the source give for `O=C(Nc1ccc(Cl)c(Cl)c1)C1C2C=CC3(O2)C1C(=O)N(CCN1CCCCC1)C3C(=O)NC1CCCCC1` (centres undefined) here?
Answer: Its Potency is active: 20.6 µM.

Question: With `COC1=CC(=O)OC(c2cccc(Cl)c2)C1` (centres undefined) as the molecule, how does the Potency read?
Answer: Its Potency is “inactive”.

Question: For `O=C(c1ccc2c3n(nc2c1)-c1ccccc1CO3)N1CCCCC1`, which Potency is on record?
Answer: Its Potency is active: 16.4 µM.

Question: Which Potency does the source give for `COc1ccc(C(=O)O/N=C(\N)c2ccccc2)cc1OC` here?
Answer: Its Potency is inconclusive [cytotoxic, single point].

Question: Which Potency does the source give for `COc1cccc(Sc2ccccc2/C=N/NC(N)=O)c1` here?
Answer: Its Potency is inconclusive [cytotoxic, full curve].

Question: Which Potency does the source give for `CCN(CC1COc2ccccc2O1)C(=O)c1ccc(Cl)c(S(=O)(=O)N2CC(C)OC(C)C2)c1` (centres undefined) here?
Answer: Its Potency is inconclusive [cytotoxic, single point].

Question: Which Potency does the source give for `O=C(NCCCn1ccnc1)c1ccc(N2CCCCCC2)c([N+](=O)[O-])c1` here?
Answer: Its Potency is active: 23.1 µM.

Question: For `Cc1ccc(NNC(=O)c2cccs2)cc1Cl`, which Potency is on record?
Answer: The Potency was inconclusive [cytotoxic, full curve].

Question: For `OC(c1ccccc1)(c1nc(-c2cc(F)cc(F)c2)cs1)C(F)(F)F` (centres undefined), which Potency is on record?
Answer: Its Potency is inconclusive [cytotoxic, single point].

Question: Which Potency does the source give for `Cc1ccc(/C=N/NC(=O)NC23CC4CC(CC(C4)C2)C3)o1` here?
Answer: Its Potency is inconclusive [cytotoxic, single point].

Question: With `CN(C)C(=O)c1cccc(-c2cc(NC=O)c3ncc(-c4ccc(F)cc4)n3c2)c1` as the molecule, how does the Potency read?
Answer: The Potency was inconclusive [cytotoxic, single point].

Question: With `CCN(CC)C(=S)SCC(=O)Nc1nc(-c2ccccc2)c(-c2ccccc2)o1` as the molecule, how does the Potency read?
Answer: Its Potency is inconclusive [cytotoxic, partial curve].

Question: Which Potency does the source give for `c1cc2c3c(cccc3c1)C(N1CCCCCC1)=N2` here?
Answer: Its Potency is “inactive”.

Question: With `CC(=O)Nc1cccc(-c2ccnc3c2CC(C)(C(=O)NCCC(F)(F)F)O3)c1` (centres undefined) as the molecule, how does the Potency read?
Answer: Its Potency is inconclusive [cytotoxic, full curve].

Question: Which Potency does the source give for `O=C(COC(=O)c1ccccn1)NCc1cccs1` here?
Answer: Its Potency is “inactive”.

Question: Which Potency does the source give for `COC(=O)[C@@]12C[C@@H](CC(=O)NCC34CC5CC(CC(C5)C3)C4)C(=O)N(Cc3cccc4ccccc34)C1=CCC(C)(C)C2` here?
Answer: Its Potency is “inactive”.

Question: Which Potency does the source give for `Fc1ccc(-[n+]2nc(Nc3ccccc3)sc2-c2c(Cl)cccc2Cl)cc1` here?
Answer: Its Potency is inconclusive [cytotoxic, single point].

Question: Which Potency does the source give for `CNc1oc(-c2ccc(C)cc2)nc1P(=O)(c1ccccc1)c1ccccc1` here?
Answer: Its Potency is inconclusive [cytotoxic, single point].

Question: For `CCn1c(CNc2ccc(Cl)cc2)nnc1SCc1ccccc1`, which Potency is on record?
Answer: The Potency was “inactive”.

Question: For `CC(C)(C)C(=O)NC(=S)NNC(=O)c1sc2ccccc2c1Cl`, which Potency is on record?
Answer: The Potency was active: 16.4 µM.

Question: Which Potency does the source give for `O=C(O)C1C2C=CC(O2)C1C(=O)Nc1ccc(S(=O)(=O)N2CCc3ccccc32)cc1` (centres undefined) here?
Answer: Its Potency is “inactive”.

Question: For `CN(c1ccc(C(=O)N/N=C/c2cccc([N+](=O)[O-])c2)cc1)S(=O)(=O)c1ccccc1`, which Potency is on record?
Answer: Its Potency is “inactive”.

Question: For `COc1ccc(C(=O)C[n+]2ccc3c(c2)nc(-c2ccccc2)n3C)cc1`, which Potency is on record?
Answer: Its Potency is inconclusive [cytotoxic, single point].

Question: For `Cc1ccc(NC(=O)CCNS(=O)(=O)c2ccc3[nH]c(=O)oc3c2)cc1N(C)C`, which Potency is on record?
Answer: Its Potency is “inactive”.

Question: Which Potency does the source give for `O=C(Oc1ccccc1)c1cc(O)c(O)c(O)c1` here?
Answer: Its Potency is inconclusive [cytotoxic, partial curve].

Question: For `CC(=Nc1ccc(C)cc1)c1sc2ccccc2c1O`, which Potency is on record?
Answer: The Potency was inconclusive [cytotoxic, single point].

Question: Which Potency does the source give for `Cc1ccc(C(=O)CC(=O)COc2ccc(Cl)cc2)cc1` here?
Answer: Its Potency is inconclusive [cytotoxic, single point].

Question: For `O=C1C=C(c2ccccc2C(F)(F)F)C[C@@H](c2ccc3c(c2)OCO3)C1`, which Potency is on record?
Answer: The Potency was inconclusive [cytotoxic, single point].

Question: For `COc1ccc(NC(=O)c2ccc(F)cc2)cc1S(=O)(=O)Nc1cc(C)ccc1Br`, which Potency is on record?
Answer: The Potency was inconclusive [cytotoxic, single point].

Question: For `COc1ccc(-c2csc3ncn(-c4ccc(C)cc4)c(=O)c23)cc1OC`, which activity, negative = less viability is on record?
Answer: Its activity, negative = less viability is inconclusive: -18.4% [cytotoxic].
